The record followed here is US10751422B2, “Antibody drug conjugates (ADC) that bind to FLT3 proteins” (AGENSYS, INC., priority 2015, dated 2020).

The target in series [1] is T1, Recombinant human FLT3-Fc (Homo sapiens, UniProt P36888).
T1 construct: purchased R and D Systems
In words: FLT3 ligand blocking assay on Luminex microspheres. The format is binding. The following applies: biotinylated FLT3 ligand 5 ng/mL; antibody 10 μg/mL; 60 minutes. The text has this:
In one experiment, the CHv62.21 MAb of the invention was confirmed to not block FL. Briefly, Recombinant human FLT3-Fc was purchased from R and D Systems. This protein was immobilized onto the surface of activated Luminex microspheres using standard sulfo-NHS/EDC chemistry according to the procedure provided by Luminex. A His-tagged version of the protein, along with several other proteins were conjugated to Luminex microspheres, and served as controls in this procedure.
In addition, FLT3 ligand was also purchased from R and D Systems. The ligand was biotinylated using Thermo Scientific EZ-Link Sulfo-NHS-LC-Biotin, No-Weigh Formula according to the manufacturer's recommendations. After two (2) hours of reacting the protein with Sulfo-NHS-LC-Biotin, unincorporated biotin was removed by dialysis against DPBS.
The ability of FLT3 immobilized onto the surface of the microspheres to bind to its biotinylated ligand was assessed by reacting the microspheres with various concentrations of biotinylated ligand, prepared in buffer containing PBS, 2% BSA, 0.05% Tween 20, and 0.1% sodium azide, for 120 minutes at RT with gentle shaking. […] Biotinylated FLT3 ligand bound to its immobilized receptor was detected with Streptavidin-R-Phycoerythrin (Moss, Inc.). The fluorescence associated with the microspheres was measured with the Luminex instrument. […]

Another series concerns EOL-1. In words: EOL-1 cell growth with human FLT3 ligand and antibody (Cell Titer Glo, 5 days). Conditions: 50, 10 or 5 ng/mL human FLT3 ligand, 10, 1, 0.1 μg/mL antibody. Type of series: cell-based. The protocol:
The ability of FLT3 antibodies (CHv62.21 and v62-1b37.1) to mediate the effect of human FLT3 ligand was evaluated using the human leukemia EOL-1 cell line, which endogenously expresses FLT3. Isotype control antibody (mLys-1c3.1) was also used. […] The next day, cells were treated with 50, 10 or 5 ng/mL of human FLT3 ligand (in 25 μl of complete media) and 10, 1, 0.1 and 0 μg/mL of test antibody (in 25 μl of complete media). Media alone was used as the untreated control. […] At the end of the incubation period, 100 μl of Cell Titer Glo was added to each well and incubated for 30 minutes, shaking, at room temperature.
(In general: ATP-based viability assays read luminescence as a measure of living cells.)

For series [2], the system named is FLT3 expressed on the surface of human leukemia MOLM-13 cell line. As to the kind of experiment: Binding of biotinylated antibodies to MOLM-13 cells in the presence of human FLT3 Ligand (FACS). The following applies: hFL from 100 ng/mL serially diluted 1:2; biotinylated antibody 10 and 1 μg/mL. The protocol:
In another experiment, The ability of anti-FLT3 antibodies, CHv62.21 and v62-1b37.1, to bind to FLT3 expressed on the surface of human leukemia MOLM-13 cell line was evaluated in the presence of human FLT3 Ligand (hFL). Isotype control antibody, AGS91.1-pAF, was used as a negative control.
Briefly, The MOLM-13 cells were seeded at a density of 50,000 cells per well onto round-bottom 96 well plates. The plates were washed one time with 150 μl per well of PBS. The cells were Fc blocked (20 μg/mL) at a volume of 50 μl per well in FACS buffer (PBS+2% FBS+0.1% sodium azide) to reduce non-specific binding. Cells were incubated at 4° C. for 15 minutes. Human FLT3 Ligand was added to appropriate wells at 100 ng/mL and serially diluted 1:2 across the plate for a total of 11 points. Cells were incubated for 30 minutes at 4° C. prior to adding biotinylated FLT3 antibodies. After incubation, the biotinylated anti-FLT3 antibodies and isotype control antibody were prepared in FACS buffer at 10 μg/mL and 1 μg/mL and 25 μl was added to wells and incubated for 1 hour at 4° C. Cells were washed two times with FACS buffer and Streptavidin-PE (Jackson immune) was added 100 μl per well and incubated for 1 hour at 4° C. Cells were washed two times with FACS buffer and read on the Attune Cytometer (Life technologies) and analyzed in FlowJo (Tree Star) software.

A further series relates to RS-4-11. Type of series: cell-based, human.

B1: v62-1b37.1: FLT3 ligand blocker Mab, heavy chain SEQ ID NO: 12, light chain SEQ ID NO: 13 (antibody, listed as Homo sapiens)
heavy: EVQLVESGGGVVRPGGSLRLSCAASGFTFDDYGMSWVRQAPGKGLEWVSGINWNGGSTGYADSVKGRFTISRDDAKNSLYLQMNSLRAEDTALYHCARDGYTYGPFDNWGQGTLVTVSS[skipping human IgG1 constant region]
light: DIQMTQSPSSLSASVGDRVTITCRASQGIRNDLGWYQQKPGKAPKRLIYAASSLQSGVPSRFSGSGSGTEFTLTISSLQPEDFATYYCLQHNSYPYTFGQGTKLEIKRTVAAPSVFIFPPSDEQLKSGTASVVCLLNNFYPREAKVQWKVDNALQSGNSQESVTEQDSKDSTYSLSSTLTLSKADYEKHKVYACEVTHQGLSSPVTKSFNRGEC
modifications: v62-1b37.1 heavy chain; v62-1b37.1 light chain
Consider B1, for which the “blocking of FLT3 ligand (FL) binding to immobilized FLT3” value in series [1] is “is a FL blocker”. In addition, in the series on EOL-1, the “effect on growth of EOL-1 cells in the presence of FLT3 ligand” value is given as “inhibits growth at high concentrations in the presence of FLT3 ligand”. Moreover, the “interference of human FLT3 Ligand with antibody binding to MOLM-13 cells” value in series [2] is “does interfere with the binding”.

B2: v62-1b37.1-AGL-0129-08 (conjugate)
heavy: B1 heavy
light: B1 light
Turning to B2, the cytotoxicity result in the series on RS-4-11 is reported as “can induce cytotoxicity”.
